Reference: PubChem BioAssay AID1458 (National Center for Advancing Translational Sciences (NCATS), 2008)
Among all 210,000 compounds or so, about 5,900 (2.8%) were called active. Inconclusive means that the source gave no clear call. Such entries were picked first, then a sample of the others. The call rests on the fitted dose curve; in most records, active means well fitted activation curve with a large enough effect; inconclusive means small, poorly fitted or top-dose-only effect; inactive means no such curve, though single readings can be large or run the other way. Potencies beside an inconclusive call are fits to weak or partial responses and may not hold up.
Potency means the concentration at half of the fitted maximal effect; tags describe the fitted curve by direction and shape.

Test: qHTS Assay for Enhancers of SMN2 Splice Variant Expression; further: nearly all actives have a fitted effect of over 55% in size; on activity change, positive = activation: % of control where 0% means no effect
Conditions: HEK293 SMN2-luciferase splicing reporter, luminescence, 30-36 h; activity change, positive = activation: at 46.1 µM (top of the series)
Summary of the method: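 qHTS luciferase splicing reporter: luminescence rises when SMN2 exon 7 is included in transfected HEK293 cells. Compound exposure lasted 30-36 h at 37C, with 4.5 mM final sodium butyrate as control, followed by a ONE-Glo read.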
For `CCOc1ccc(-c2nc(-c3cccs3)c(CC(=O)O)s2)cc1OC`, the Potency was “inactive”. With `CCCNC(=O)CNC(=S)N(Cc1ccccc1F)C1CCCCC1` the Potency was inconclusive: 0.0224 µM [activator, full curve, poor fit]. With `COc1ccc(C(=O)N/N=C2\SCC(=O)N2Cc2ccc3c(c2)OCO3)c(OC)c1` the Potency was “inactive”. In the case of `O=[N+]([O-])c1ccccc1S(=O)(=O)N1CCN(CC2CC=CCC2)CC1` (configuration not stated), the Potency is reported as inconclusive: 0.01 µM [activator, full curve, poor fit]. For `O=C(Cc1ccccc1)Nc1nnc(-c2cccs2)s1`, the Potency was inconclusive: 11.2 µM [activator, partial curve]. For `CCOc1ccccc1N1CC(O)=C(c2nc3ccccc3s2)C1=N`, the Potency was “inactive”. In the case of `Fc1ccccc1C1c2[nH]c3ccccc3c2CCN1Cc1ccoc1` (configuration not stated), the Potency is reported as inconclusive: 31.6 µM [activator, single point]. In the case of `CN(C)C(=O)C(=O)c1c(-c2ccccc2)cc2ccccn12`, the Potency is reported as inconclusive: 0.126 µM [activator, full curve, poor fit]. With `Cn1cc(C(=O)NCCc2ccccc2)c(=O)c2cc(S(=O)(=O)N3CCCCCC3)ccc21` the Potency was “inactive”. In the case of `CCCCN1CCC(n2c(=O)[nH]c3ccccc32)CC1`, the activity change, positive = activation is reported as inconclusive: 32.7% [activator]. For `CC1(C)CC(=O)c2cc(-c3nc(-c4ccc(Cl)cc4)cs3)c(=O)n(-c3cccc(F)c3)c2C1`, the Potency was “inactive”. For `Cc1ncsc1C(=O)N1N=C2/C(=C/c3ccccc3)CCCC2C1c1ccccc1` (configuration not stated), the Potency was “inactive”. In the case of `NC(=O)c1c(NC(=O)c2cccs2)sc2c1CCCCCC2`, the Potency is reported as inconclusive: 10 µM [activator, partial curve, poor fit]. In the case of `O=C(C[n+]1cc2ccccc2c2ccccc21)c1ccccc1`, the Potency is reported as inconclusive: 0.0089 µM [activator, full curve, poor fit]. With `COc1ccccc1C(=O)Nc1ccccn1` the Potency was active: 22.4 µM. For `CC(C)Sc1nc(N)nc(-c2cccs2)c1C#N`, the Potency was active: 17.8 µM. In the case of `CCn1c(=O)c(=O)[nH]c2cc(C(=O)NC3CCCc4ccccc43)ccc21` (configuration not stated), the Potency is reported as inconclusive: 0.02 µM [activator, full curve, poor fit]. For `COC(=O)c1ccc(Cn2nc(-c3ccc(C)cc3)ccc2=O)cc1`, the Potency was “inactive”. For `O=C(NC1CCCCC1)N(Cc1ccc(F)cc1)Cc1nc2ccccc2c(=O)[nH]1`, the Potency was inconclusive: 5.62 µM [activator, single point]. In the case of `COc1nc(-c2ccc(Cl)cc2)ccc1-c1noc(-c2cccs2)n1`, the Potency is reported as inconclusive: 0.199 µM [activator, single point]. With `O=C(Nc1cccc(C(=O)N2CCCCCC2)c1)c1ccco1` the Potency was inconclusive: 0.0071 µM [activator, full curve, poor fit]. For `Cc1ccc(NC(=S)NCC(C)C)cc1`, the Potency was inconclusive: 35.5 µM [activator, single point]. With `CC1CCC(Nc2nnnn2-c2ccccc2)CC1` (configuration not stated) the Potency was inconclusive: 2.82 µM [activator, partial curve]. In the case of `CC(C)(C)C(=O)Nc1nnc(SCC(=O)Nc2ccc3c(c2)OCO3)s1`, the Potency is reported as “inactive”. For `FC(F)C(F)(F)C1=CC(c2cccs2)=NCCN1`, the Potency was active: 0.708 µM. In the case of `CC(C)c1ccc(NC(=O)CCS(=O)(=O)c2cccc3nonc23)cc1`, the Potency is reported as “inactive”. For `Cc1cc(OC(C)C)nc(NCc2ccccc2)n1`, the Potency was inconclusive: 35.5 µM [activator, single point]. With `CC1=NC(=O)C(N=Nc2cccc(O)c2)N1c1ccccc1` (configuration not stated) the Potency was “inactive”. With `Cc1ccc(OCC(=O)N/N=C\c2ccc(-c3cccc(C(=O)O)c3)o2)c(C)c1` the Potency was “inactive”. In the case of `Cc1cc(/C=C2/NC(=S)NC2=O)c(C)n1-c1cccnc1`, the Potency is reported as inconclusive: 8.91 µM [activator, partial curve]. For `O=C(COc1ccccc1)NCC1CCCO1` (configuration not stated), the Potency was inconclusive: 17.8 µM [activator, partial curve, poor fit]. For `Clc1ccc(/C=N/Nc2nn[nH]n2)cc1`, the Potency was “inactive”. With `Cc1ccc(Cn2nc(-c3ccccc3)nc2-c2ccccc2)cc1` the Potency was inconclusive: 20 µM [activator, partial curve, poor fit]. In the case of `CN(C)S(=O)(=O)c1cccc(NC(=S)NC2CCCCC2)c1`, the Potency is reported as inconclusive: 17.8 µM [activator, single point]. In the case of `O=C(COC(=O)CC1CCCC1)Nc1cc2c(cc1Cl)C(=O)c1ccccc1C2=O`, the Potency is reported as inconclusive: 14.1 µM [activator, single point]. In the case of `Cc1ccsc1C(=O)OCC(=O)Nc1c(C)n(C)n(-c2ccccc2)c1=O`, the Potency is reported as inconclusive: 35.5 µM [activator, partial curve, poor fit]. For `O=C(C1CCN(S(=O)(=O)c2cccs2)CC1)N1CCc2ccccc2C1`, the Potency was inconclusive: 0.708 µM [activator, full curve, poor fit]. In the case of `Cc1ccc(C)c(OCC(O)CN2CCN(CCN3C(=O)c4cccc5cccc(c45)C3=O)CC2)c1` (configuration not stated), the Potency is reported as “inactive”. For `NC(=O)c1ccccc1NC(=S)NC(=O)c1ccc(Br)o1`, the Potency was inconclusive: 2.51 µM [activator, full curve, poor fit]. With `Cc1nc2sc(C(=O)c3ccccc3)c(N)c2c2c1CCCC2` the Potency was inconclusive: 20 µM [activator, single point]. With `O=C(NCCc1cccc(F)c1)/C(=C/c1cccnc1)NC(=O)c1ccccc1` the Potency was “inactive”. With `Cc1ccc(NC(=O)C2CCN(c3ncccn3)CC2)cc1F` the Potency was “inactive”. For `COC(=O)c1ccc(Cl)c(NS(=O)(=O)c2ccc3c(c2)OCCO3)c1`, the Potency was inconclusive: 3.98 µM [activator, partial curve]. For `Nc1nc(SC/C=C\c2ccccc2)c2[nH]cnc2n1`, the Potency was inconclusive: 1.26 µM [activator, single point]. With `COc1ccc(/C=N/Nc2snc(SC)c2C#N)cc1OC` the Potency was inconclusive: 10 µM [activator, partial curve]. In the case of `Cc1cc(=O)[nH]c(N/N=C/c2ccc([N+](=O)[O-])cc2)n1`, the Potency is reported as “inactive”. For `CC(c1nnnn1C(C)(C)C)N(Cc1cccnc1)Cc1ccccc1Cl` (configuration not stated), the Potency was inconclusive: 0.0316 µM [activator, full curve, poor fit].
